Assay results published in PubChem BioAssay AID485294 (National Center for Advancing Translational Sciences (NCATS), 2010).
In all, about 370,000 compounds went through this assay and about 150 (0.041%) were called active. The shares of active, inactive and inconclusive entries below differ from those in the screen. Calls follow the shape of the dose curve; as a rule, active = well fitted inhibition curve with a large enough effect; inconclusive = small, poorly fitted or top-dose-only effect; inactive = flat fitted curve, though single readings scatter. No potency is given beside an inconclusive call; the fits are too rough.
Also: nearly all actives have a fitted effect of over 25% in size.
Potency is read from the fitted curve at half-maximal effect; tags tell the direction and shape of the fitted curve.

What follows are compounds tested against Beta-lactamase (Escherichia coli (strain K12)) (UniProt P00811) (assay: qHTS Inhibitors of AmpC Beta-Lactamase (assay with detergent)). Details: AmpC hydrolysis of nitrocefin, absorbance 480 nm, 0.01% Triton; series mostly up to 114 µM.
Sequence of UniProt P00811 (P00811 whole entry, looked up): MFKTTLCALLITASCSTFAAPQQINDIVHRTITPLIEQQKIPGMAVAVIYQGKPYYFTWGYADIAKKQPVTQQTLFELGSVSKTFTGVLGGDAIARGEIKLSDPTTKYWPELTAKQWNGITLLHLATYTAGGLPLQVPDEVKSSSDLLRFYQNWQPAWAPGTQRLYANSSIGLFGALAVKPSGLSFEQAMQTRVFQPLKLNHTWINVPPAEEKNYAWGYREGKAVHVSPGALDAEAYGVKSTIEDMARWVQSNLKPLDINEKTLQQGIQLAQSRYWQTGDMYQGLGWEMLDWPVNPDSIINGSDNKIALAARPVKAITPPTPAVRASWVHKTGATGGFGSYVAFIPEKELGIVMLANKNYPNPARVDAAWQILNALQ
Procedure, shortened: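 AmpC (5.3 nM in the dispensed reagent) in 20 mM phosphate pH 7.0 with 0.01% (detergent screen) or 0.0001% Triton X-100 was preincubated with compounds for 15 min at room temperature. Nitrocefin was then added from an 800 uM solution, and hydrolysis was followed at 480 nm.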
In the case of `Cc1ccccc1OCCN1C(=O)c2ccccc2C1=O`, the Potency is reported as inconclusive [inhibitor, single point]. With `COc1cc2c(cc1OC)CC(=O)N(C)CC2` the Potency was inconclusive [inhibitor, partial curve]. In the case of `Cc1ccc(OC(=O)c2cc(-c3ccc4c(c3)OCCO4)on2)c(C)c1`, the Potency is reported as inconclusive [inhibitor, full curve, poor fit]. For `Cc1cc(=O)oc2c(C)c(OC(C)C(=O)NC(Cc3c[nH]c4ccc(O)cc34)C(=O)O)ccc12` (stereo unspecified), the Potency was inconclusive [inhibitor, partial curve, poor fit]. In the case of `COC(=O)c1ccc(C(=O)OC)c(NC(=O)CN(c2ccc3c(c2)OCO3)S(C)(=O)=O)c1`, the Potency is reported as inconclusive [inhibitor, single point]. With `CCc1nn(CCCC(=O)NCc2ccccc2Br)c(=O)c2cc3occc3n12` the Potency was “inactive”. With `CC1CCN(S(=O)(=O)c2ccc3c(c2)N(CC(=O)NC(C)C)C(=O)CS3)CC1` the Potency was “inactive”. With `CC(CC(=O)OCC(=O)NCc1ccc(Cl)cc1)c1ccccc1` (stereo unspecified) the Potency was inconclusive [inhibitor, full curve, poor fit]. In the case of `COc1ccc(S(=O)(=O)Nc2cc3c4c(c2)CCN4C(=O)CC3)cc1OC`, the Potency is reported as inconclusive [inhibitor, partial curve, poor fit]. With `COc1ccc(-n2c(O)c(C(C)=NCCCn3ccnc3)c(=O)[nH]c2=O)cc1` the Potency was inconclusive [inhibitor, full curve, poor fit]. With `COc1cccc(C(=O)NCCS(=O)(=O)N2CCCC2)c1` the Potency was inconclusive [inhibitor, full curve, poor fit]. With `Cc1ccc(OCCNC(=O)CCNS(=O)(=O)c2ccc(Br)cc2)cc1` the Potency was inconclusive [inhibitor, full curve]. `Cc1cc(NC(=O)CCSc2nc(-c3ccco3)cc(C(F)(F)F)n2)n(-c2ccccc2)n1` was tested, and the Potency was inconclusive [inhibitor, single point]. `CCOC(=O)N1CCC(NC(=O)C2CCCN(Cc3nc(-c4cccc(Cl)c4)oc3C)C2)CC1` (stereo unspecified) was tested, and the Potency was inconclusive [inhibitor, full curve]. For `Cc1ccc(N2CC(NC(=O)C(=O)c3c(C)[nH]c4ccccc34)CC2=O)cc1C` (stereo unspecified), the Potency was inconclusive [inhibitor, full curve, poor fit]. `Nc1nncn1C(=O)CCCOc1ccc(Cl)cc1Cl` was tested, and the Potency was inconclusive [inhibitor, full curve, poor fit].
